# Test results reported in PMC12820563, “FoxP3 forms a head-to-head dimer in vivo and stabilizes its multimerization on adjacent microsatellites”.
# The list shows a part of the results.
# Molecular target: T1, MBP-FoxP1dN (Mus musculus, UniProt P58462 326-579)
# T1 sequence: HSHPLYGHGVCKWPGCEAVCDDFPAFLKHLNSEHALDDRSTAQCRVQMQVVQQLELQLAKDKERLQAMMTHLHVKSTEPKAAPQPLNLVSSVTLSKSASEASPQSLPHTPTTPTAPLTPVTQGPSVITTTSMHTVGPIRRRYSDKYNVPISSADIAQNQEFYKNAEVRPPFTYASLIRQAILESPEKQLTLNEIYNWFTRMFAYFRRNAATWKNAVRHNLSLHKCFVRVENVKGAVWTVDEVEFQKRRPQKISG
# Test: PD-seq (MBP pull-down with sequencing); 20 mM Tris-HCl pH 7.5, 100 mM NaCl, 1.5 mM MgCl2, 0.4 uM protein, 0.1 uM dsDNA library, 30 min, room temperature, amylose pull-down; high values mean tight binding
# Conditions: protein: recombinant; tags: His6-MBP; chain copies: 2; dsDNA, one strand shown
# Summary of the method: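 A fragment of mouse FoxP3 or FoxP1 without its N-terminus, carrying a His6-MBP tag and produced in E. coli, was combined at 0.4 µM with a 0.1 µM degenerate double-stranded DNA library filled in with Klenow. The mixture sat for 30 min at room temperature in Tris pH 7.5 buffer containing NaCl and MgCl2. Protein–DNA complexes were captured on amylose resin, washed three times, and the DNA was freed with proteinase K, barcoded by PCR and sequenced on Illumina. Binding is expressed as reads-per-million enrichment of pull-down over input, with replicates pooled.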
row,Sequence,binding signal
1,GATGATTGTTCTCCCAGCTGATGAATTCCCCAGATCGAGTAAACAAATTTTCCTAATCTTTCTGTTCAAGCGCCATCTAC,0.834 RPM ratio (pull-down/input)
2,GATGATTGTTCTCCCAGCTGATGAATTATACGACTCGAGTAAACAAATTTTCCTAATCTTTCTGTTCAAGCGCCATCTAC,0.919 RPM ratio (pull-down/input)
3,GATGATTGTTCTCCCAGCTGATGAATTCGCGGATTCGAGTAAACAAATTTTCCTAATCTTTCTGTTCAAGCGCCATCTAC,0.84 RPM ratio (pull-down/input)
4,GATGATTGTTCTCCCAGCTGATGAATTCACGGTGTCGAGTAAACAAATTTTCCTAATCTTTCTGTTCAAGCGCCATCTAC,0.916 RPM ratio (pull-down/input)
5,GATGATTGTTCTCCCAGCTGATGAATTATGCTCGTCGAGTAAACAAATTTTCCTAATCTTTCTGTTCAAGCGCCATCTAC,1.01 RPM ratio (pull-down/input)
6,GATGATTGTTCTCCCAGCTGATGAATTTAAAAGTTCGAGTAAACAAATTTTCCTAATCTTTCTGTTCAAGCGCCATCTAC,0.888 RPM ratio (pull-down/input)
7,GATGATTGTTCTCCCAGCTGATGAATTTCGGGCGTCGAGTAAACAAATTTTCCTAATCTTTCTGTTCAAGCGCCATCTAC,0.868 RPM ratio (pull-down/input)
8,GATGATTGTTCTCCCAGCTGATGAATTCCGAGTGTCGAGTAAACAAATTTTCCTAATCTTTCTGTTCAAGCGCCATCTAC,0.822 RPM ratio (pull-down/input)
9,GATGATTGTTCTCCCAGCTGATGAATTCAACGCGTCGAGTAAACAAATTTTCCTAATCTTTCTGTTCAAGCGCCATCTAC,0.959 RPM ratio (pull-down/input)
10,GATGATTGTTCTCCCAGCTGATGAATTCGAGGGCTCGAGTAAACAAATTTTCCTAATCTTTCTGTTCAAGCGCCATCTAC,0.708 RPM ratio (pull-down/input)
11,GATGATTGTTCTCCCAGCTGATGAATTGCTATCCTCGAGTAAACAAATTTTCCTAATCTTTCTGTTCAAGCGCCATCTAC,0.977 RPM ratio (pull-down/input)
12,GATGATTGTTCTCCCAGCTGATGAATTACTATAGTCGAGTAAACAAATTTTCCTAATCTTTCTGTTCAAGCGCCATCTAC,1.18 RPM ratio (pull-down/input)
13,GATGATTGTTCTCCCAGCTGATGAATTAACGCGATCGAGTAAACAAATTTTCCTAATCTTTCTGTTCAAGCGCCATCTAC,0.959 RPM ratio (pull-down/input)
14,GATGATTGTTCTCCCAGCTGATGAATTATAGCTGTCGAGTAAACAAATTTTCCTAATCTTTCTGTTCAAGCGCCATCTAC,1.06 RPM ratio (pull-down/input)
15,GATGATTGTTCTCCCAGCTGATGAATTGATTGCCTCGAGTAAACAAATTTTCCTAATCTTTCTGTTCAAGCGCCATCTAC,1.05 RPM ratio (pull-down/input)
16,GATGATTGTTCTCCCAGCTGATGAATTAATATCATCGAGTAAACAAATTTTCCTAATCTTTCTGTTCAAGCGCCATCTAC,1.24 RPM ratio (pull-down/input)
17,GATGATTGTTCTCCCAGCTGATGAATTTGAATTCTCGAGTAAACAAATTTTCCTAATCTTTCTGTTCAAGCGCCATCTAC,0.834 RPM ratio (pull-down/input)
18,GATGATTGTTCTCCCAGCTGATGAATTGACCCGATCGAGTAAACAAATTTTCCTAATCTTTCTGTTCAAGCGCCATCTAC,0.85 RPM ratio (pull-down/input)
19,GATGATTGTTCTCCCAGCTGATGAATTCCAAGCATCGAGTAAACAAATTTTCCTAATCTTTCTGTTCAAGCGCCATCTAC,0.968 RPM ratio (pull-down/input)
20,GATGATTGTTCTCCCAGCTGATGAATTTGCTCTATCGAGTAAACAAATTTTCCTAATCTTTCTGTTCAAGCGCCATCTAC,0.97 RPM ratio (pull-down/input)
21,GATGATTGTTCTCCCAGCTGATGAATTCGTCGTGTCGAGTAAACAAATTTTCCTAATCTTTCTGTTCAAGCGCCATCTAC,0.922 RPM ratio (pull-down/input)

row,Sequence,binding signal
1,GATGATTGTTCTCCCAGCTGATGAATTTGGCGGGTCGAGTAAACAAATTTTCCTAATCTTTCTGTTCAAGCGCCATCTAC,0.737 RPM ratio (pull-down/input)
2,GATGATTGTTCTCCCAGCTGATGAATTCGTGTCATCGAGTAAACAAATTTTCCTAATCTTTCTGTTCAAGCGCCATCTAC,1.06 RPM ratio (pull-down/input)
3,GATGATTGTTCTCCCAGCTGATGAATTCTGTTTTTCGAGTAAACAAATTTTCCTAATCTTTCTGTTCAAGCGCCATCTAC,1.99 RPM ratio (pull-down/input)
4,GATGATTGTTCTCCCAGCTGATGAATTCACCGCATCGAGTAAACAAATTTTCCTAATCTTTCTGTTCAAGCGCCATCTAC,1.02 RPM ratio (pull-down/input)
5,GATGATTGTTCTCCCAGCTGATGAATTATGAAATTCGAGTAAACAAATTTTCCTAATCTTTCTGTTCAAGCGCCATCTAC,1.09 RPM ratio (pull-down/input)
6,GATGATTGTTCTCCCAGCTGATGAATTAGGCCTGTCGAGTAAACAAATTTTCCTAATCTTTCTGTTCAAGCGCCATCTAC,0.853 RPM ratio (pull-down/input)
7,GATGATTGTTCTCCCAGCTGATGAATTCTGCGCCTCGAGTAAACAAATTTTCCTAATCTTTCTGTTCAAGCGCCATCTAC,0.918 RPM ratio (pull-down/input)
8,GATGATTGTTCTCCCAGCTGATGAATTCTAGCTGTCGAGTAAACAAATTTTCCTAATCTTTCTGTTCAAGCGCCATCTAC,0.826 RPM ratio (pull-down/input)
9,GATGATTGTTCTCCCAGCTGATGAATTGTAACAGTCGAGTAAACAAATTTTCCTAATCTTTCTGTTCAAGCGCCATCTAC,1.15 RPM ratio (pull-down/input)
10,GATGATTGTTCTCCCAGCTGATGAATTGGGCCCCTCGAGTAAACAAATTTTCCTAATCTTTCTGTTCAAGCGCCATCTAC,0.798 RPM ratio (pull-down/input)
11,GATGATTGTTCTCCCAGCTGATGAATTGCCTACCTCGAGTAAACAAATTTTCCTAATCTTTCTGTTCAAGCGCCATCTAC,0.948 RPM ratio (pull-down/input)
12,GATGATTGTTCTCCCAGCTGATGAATTTCCCCGATCGAGTAAACAAATTTTCCTAATCTTTCTGTTCAAGCGCCATCTAC,0.841 RPM ratio (pull-down/input)
13,GATGATTGTTCTCCCAGCTGATGAATTATTGGCCTCGAGTAAACAAATTTTCCTAATCTTTCTGTTCAAGCGCCATCTAC,1.1 RPM ratio (pull-down/input)
14,GATGATTGTTCTCCCAGCTGATGAATTTCTGGAATCGAGTAAACAAATTTTCCTAATCTTTCTGTTCAAGCGCCATCTAC,0.906 RPM ratio (pull-down/input)
15,GATGATTGTTCTCCCAGCTGATGAATTCCCTATATCGAGTAAACAAATTTTCCTAATCTTTCTGTTCAAGCGCCATCTAC,0.911 RPM ratio (pull-down/input)
16,GATGATTGTTCTCCCAGCTGATGAATTGATAGCGTCGAGTAAACAAATTTTCCTAATCTTTCTGTTCAAGCGCCATCTAC,1.12 RPM ratio (pull-down/input)
17,GATGATTGTTCTCCCAGCTGATGAATTCTTATTCTCGAGTAAACAAATTTTCCTAATCTTTCTGTTCAAGCGCCATCTAC,0.845 RPM ratio (pull-down/input)
18,GATGATTGTTCTCCCAGCTGATGAATTTTCAGCATCGAGTAAACAAATTTTCCTAATCTTTCTGTTCAAGCGCCATCTAC,1.15 RPM ratio (pull-down/input)
19,GATGATTGTTCTCCCAGCTGATGAATTCTGCTTTTCGAGTAAACAAATTTTCCTAATCTTTCTGTTCAAGCGCCATCTAC,1.06 RPM ratio (pull-down/input)
20,GATGATTGTTCTCCCAGCTGATGAATTTTCTATCTCGAGTAAACAAATTTTCCTAATCTTTCTGTTCAAGCGCCATCTAC,1 RPM ratio (pull-down/input)
21,GATGATTGTTCTCCCAGCTGATGAATTTAAGATTTCGAGTAAACAAATTTTCCTAATCTTTCTGTTCAAGCGCCATCTAC,0.887 RPM ratio (pull-down/input)

row,Sequence,binding signal
1,GATGATTGTTCTCCCAGCTGATGAATTGAAGAGCTCGAGTAAACAAATTTTCCTAATCTTTCTGTTCAAGCGCCATCTAC,0.737 RPM ratio (pull-down/input)
2,GATGATTGTTCTCCCAGCTGATGAATTAAGCGTCTCGAGTAAACAAATTTTCCTAATCTTTCTGTTCAAGCGCCATCTAC,0.921 RPM ratio (pull-down/input)
3,GATGATTGTTCTCCCAGCTGATGAATTAAACTCCTCGAGTAAACAAATTTTCCTAATCTTTCTGTTCAAGCGCCATCTAC,0.846 RPM ratio (pull-down/input)
4,GATGATTGTTCTCCCAGCTGATGAATTGTCATTGTCGAGTAAACAAATTTTCCTAATCTTTCTGTTCAAGCGCCATCTAC,1.33 RPM ratio (pull-down/input)
5,GATGATTGTTCTCCCAGCTGATGAATTTCGCCGCTCGAGTAAACAAATTTTCCTAATCTTTCTGTTCAAGCGCCATCTAC,0.854 RPM ratio (pull-down/input)
6,GATGATTGTTCTCCCAGCTGATGAATTGACCTATTCGAGTAAACAAATTTTCCTAATCTTTCTGTTCAAGCGCCATCTAC,1.01 RPM ratio (pull-down/input)
7,GATGATTGTTCTCCCAGCTGATGAATTAGGTACGTCGAGTAAACAAATTTTCCTAATCTTTCTGTTCAAGCGCCATCTAC,0.921 RPM ratio (pull-down/input)
8,GATGATTGTTCTCCCAGCTGATGAATTCGAGGGGTCGAGTAAACAAATTTTCCTAATCTTTCTGTTCAAGCGCCATCTAC,0.738 RPM ratio (pull-down/input)
9,GATGATTGTTCTCCCAGCTGATGAATTCTGATAATCGAGTAAACAAATTTTCCTAATCTTTCTGTTCAAGCGCCATCTAC,1.1 RPM ratio (pull-down/input)
10,GATGATTGTTCTCCCAGCTGATGAATTAAACGTGTCGAGTAAACAAATTTTCCTAATCTTTCTGTTCAAGCGCCATCTAC,1.01 RPM ratio (pull-down/input)
11,GATGATTGTTCTCCCAGCTGATGAATTGAATCCGTCGAGTAAACAAATTTTCCTAATCTTTCTGTTCAAGCGCCATCTAC,0.829 RPM ratio (pull-down/input)
12,GATGATTGTTCTCCCAGCTGATGAATTACTGAGGTCGAGTAAACAAATTTTCCTAATCTTTCTGTTCAAGCGCCATCTAC,0.912 RPM ratio (pull-down/input)
13,GATGATTGTTCTCCCAGCTGATGAATTATAGAGTTCGAGTAAACAAATTTTCCTAATCTTTCTGTTCAAGCGCCATCTAC,0.944 RPM ratio (pull-down/input)
14,GATGATTGTTCTCCCAGCTGATGAATTTCCACTGTCGAGTAAACAAATTTTCCTAATCTTTCTGTTCAAGCGCCATCTAC,0.825 RPM ratio (pull-down/input)
15,GATGATTGTTCTCCCAGCTGATGAATTTTCATGTTCGAGTAAACAAATTTTCCTAATCTTTCTGTTCAAGCGCCATCTAC,0.921 RPM ratio (pull-down/input)
16,GATGATTGTTCTCCCAGCTGATGAATTATTCAATTCGAGTAAACAAATTTTCCTAATCTTTCTGTTCAAGCGCCATCTAC,1.02 RPM ratio (pull-down/input)
17,GATGATTGTTCTCCCAGCTGATGAATTTAATGACTCGAGTAAACAAATTTTCCTAATCTTTCTGTTCAAGCGCCATCTAC,0.964 RPM ratio (pull-down/input)
18,GATGATTGTTCTCCCAGCTGATGAATTGCGATCATCGAGTAAACAAATTTTCCTAATCTTTCTGTTCAAGCGCCATCTAC,1.15 RPM ratio (pull-down/input)
19,GATGATTGTTCTCCCAGCTGATGAATTTTGCATTTCGAGTAAACAAATTTTCCTAATCTTTCTGTTCAAGCGCCATCTAC,1.29 RPM ratio (pull-down/input)
20,GATGATTGTTCTCCCAGCTGATGAATTGGTACGGTCGAGTAAACAAATTTTCCTAATCTTTCTGTTCAAGCGCCATCTAC,0.835 RPM ratio (pull-down/input)
21,GATGATTGTTCTCCCAGCTGATGAATTGACGTAGTCGAGTAAACAAATTTTCCTAATCTTTCTGTTCAAGCGCCATCTAC,1.08 RPM ratio (pull-down/input)
